{"source": "PubChem BioAssay AID2147", "about": "(National Center for Advancing Translational Sciences (NCATS), 2009)", "note": "Several values for one entry are separate records, joined by “and”; a condition that tells them apart may be missing. Identical values can stand only once. The whole screen tested about 230,000 compounds, of which about 3,600 (1.6%) were called active. The shares of active, inactive and inconclusive entries below differ from those in the screen. Calls come from the whole dose curve; as a rule, active = well fitted inhibition curve with a large enough effect (not every such curve was filed as active); inconclusive = small, poorly fitted or top-dose-only effect, or another doubt; inactive = no such curve, though single readings can be large or run the other way. Potencies of inconclusive entries are doubtful fits and often do not repeat. Note: nearly all actives have a fitted effect of over 50% in size. Potency is the fitted concentration of half-maximal effect; tags give direction and shape of the fitted curve.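 Throughout, for activity change, negative = inhibition: 0% = wells with enzyme and -100% = buffer wells without enzyme.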", "data": [{"molecular_target": "Lysine-specific demethylase 4E (Homo sapiens) (UniProt B2RXH2)", "sequence (B2RXH2 whole entry, looked up, the tested form may be a part)": "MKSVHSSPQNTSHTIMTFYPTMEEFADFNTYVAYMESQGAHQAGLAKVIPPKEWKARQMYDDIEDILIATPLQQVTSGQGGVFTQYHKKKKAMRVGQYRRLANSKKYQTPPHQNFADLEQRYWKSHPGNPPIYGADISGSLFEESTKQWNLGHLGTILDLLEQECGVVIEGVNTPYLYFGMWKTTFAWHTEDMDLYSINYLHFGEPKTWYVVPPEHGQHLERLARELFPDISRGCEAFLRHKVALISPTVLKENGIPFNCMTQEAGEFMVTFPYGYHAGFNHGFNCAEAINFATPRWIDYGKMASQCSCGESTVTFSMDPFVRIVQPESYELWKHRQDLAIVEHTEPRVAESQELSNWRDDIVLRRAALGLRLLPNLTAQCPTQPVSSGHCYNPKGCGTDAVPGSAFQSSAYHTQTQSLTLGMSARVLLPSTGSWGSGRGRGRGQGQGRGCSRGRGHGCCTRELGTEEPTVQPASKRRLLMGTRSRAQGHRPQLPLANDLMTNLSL", "experiment": "qHTS Assay for Inhibitors of Human Jumonji Domain Containing 2E (JMJD2E)", "conditions": "JMJD2E catalytic domain, FDH-coupled NADH fluorescence (FDH is formaldehyde dehydrogenase); series mostly up to 57.1 µM; activity change, negative = inhibition: at the top concentration", "values": [{"smiles": "CCOC(=O)CSc1nnc(NC(=O)c2cccc(S(=O)(=O)N3CCCC3)c2)s1", "Potency": "inconclusive: 35.5 µM [inhibitor, single point]"}, {"smiles": "COc1cc(/C=N\\Nc2cc(=O)n(C)c(=O)n2C)ccc1O", "Potency": "inconclusive: 39.8 µM [inhibitor, single point]"}, {"smiles": "Cc1cc2ccccn2c1C(=O)Nc1ccccc1", "Potency": "inconclusive: 35.5 µM [inhibitor, single point]"}, {"smiles": "N#Cc1cc([N+](=O)[O-])ccc1Oc1cccc(/C=N/NC(=O)c2cccc(Cl)c2)c1", "activity change, negative = inhibition": "inactive: 10.9%"}, {"smiles": "Cc1cccc(/C=N/NC(=O)c2cc(-c3cccnc3)nc3c2c(C)nn3-c2ccccc2)c1", "Potency": "inconclusive: 12.6 µM [inhibitor, partial curve]"}, {"smiles": "CC1(C)Cc2c(ccc3ccccc23)C2=C(C(=O)N3CCCC3)C(=O)C(=O)N21", "activity change, negative = inhibition": "inactive: -6.41%"}, {"smiles": "CCOC(=O)c1sc(/N=C/C2=C(O)CC(C)(C)CC2=O)c(C(=O)OCC)c1C", "Potency": "inconclusive: 3.98 µM [inhibitor, single point]"}, {"smiles": "CCCCc1cc(=O)oc2cc(OCC(=O)N(CC)CC)ccc12", "Potency": "inconclusive: 28.2 µM [inhibitor, partial curve]"}, {"smiles": "COc1cc(/C=C(\\C#N)C(N)=O)cc(CSc2nc3ccccc3s2)c1O", "activity change, negative = inhibition": "inactive: -19.8%"}, {"smiles": "CCOC(=O)C1CCN(c2ncnc3c2oc2ccc(Cl)cc23)CC1", "Potency": "inconclusive: 39.8 µM [inhibitor, single point]"}, {"smiles": "O=C(COC(=O)c1ccccc1Nc1ccccc1)Nc1ccccc1", "Potency": "inconclusive: 22.4 µM [inhibitor, partial curve]"}, {"smiles": "C=CCSc1nc2sc3c(c2c(=O)n1CC)CCc1ccccc1-3", "Potency": "inconclusive: 3.55 µM [inhibitor, full curve]"}, {"smiles": "COc1ccccc1NC(=O)Cn1nnc(-c2ccccc2NC(=O)c2ccco2)n1", "Potency": "inconclusive: 28.2 µM [inhibitor, partial curve]"}, {"smiles": "O=C(OC1Cc2c(O)cc(O)cc2OC1c1cc(O)c(O)c(O)c1-c1c(C2Oc3cc(O)cc(O)c3CC2O)cc(O)c(O)c1O)c1cc(O)c(O)c(O)c1", "note": "(stereo not given)", "Potency": "active: 8.91 µM"}, {"smiles": "CC1CC(C)CN(CCCCOc2ccc([N+](=O)[O-])cc2)C1", "note": "(stereo not given)", "Potency": "inconclusive: 28.2 µM [inhibitor, single point]"}, {"smiles": "COc1ccc(C(=O)Nc2ccccc2C(=O)NC(Cc2ccc(O)cc2)C(=O)NNC(=O)c2ccc(C)cc2)cc1", "note": "(stereo not given)", "Potency": "inconclusive: 35.5 µM [inhibitor, partial curve]"}, {"smiles": "O=C(c1ccccc1F)N(Cc1nc2ccccc2c(=O)[nH]1)C1CCCC1", "activity change, negative = inhibition": "inactive: 2.39%"}, {"smiles": "CSc1nc(SC(C)C(=O)O)c2c3c(sc2n1)COC(C)(C)C3", "note": "(stereo not given)", "Potency": "inconclusive: 25.1 µM [inhibitor, partial curve]"}, {"smiles": "Cc1ccc(O)c(C(=O)c2cnn(C(=O)COc3ccc(Cl)cc3)c2)c1", "activity change, negative = inhibition": "inactive: 5.58%"}, {"smiles": "CCOC(=O)Cc1cc(=O)n2[nH]c(-c3ccccc3)cc2n1", "Potency": "inconclusive: 28.2 µM [inhibitor, partial curve]"}, {"smiles": "C#CCOCCOCCOCCNc1nc(N2CCN(C(=O)Cn3cc(CCCN=C(N)N)nn3)CC2)nc(N2CCN(C(=O)[C@H]([C@@H](C)CC)n3cc(CCCN=C(N)N)nn3)CC2)n1", "activity change, negative = inhibition": "inactive: -16.4%"}, {"smiles": "COC(=O)c1ccc(C23CC4(C2)[C@H](CN(C)[C@@H]4c2ccccc2)C3c2ccc(Cl)nc2)cc1", "note": "(stereo not given in full)", "Potency": "inconclusive: 35.5 µM [inhibitor, single point] and inconclusive: 39.8 µM [inhibitor, single point]"}, {"smiles": "COc1ccc(C(=O)N/N=C/c2ccc(OC)c(CSc3ccccn3)c2)cc1", "Potency": "inconclusive: 22.4 µM [inhibitor, single point]"}, {"smiles": "COc1cc(Cl)cc2c1Sc1ccccc1/C2=C/CCN(C)C", "activity change, negative = inhibition": "inactive: -26.2%"}, {"smiles": "C=C(C(=O)OC)C(NC(=O)OC)c1ccccc1", "note": "(stereo not given)", "activity change, negative = inhibition": "inactive: 6.22%"}, {"smiles": "Cc1cc(C)n(-c2nc3ccccc3nc2NCCc2ccccc2)n1", "Potency": "inconclusive: 25.1 µM [inhibitor, partial curve]"}, {"smiles": "Cc1ccccc1/C=C/c1nc2ccccc2c(=O)n1Cc1ccccc1", "Potency": "inconclusive: 35.5 µM [inhibitor, single point]"}, {"smiles": "COc1ccc(/C=C/c2nnc(NC(=O)C(C)C)s2)cc1", "Potency": "inconclusive: 35.5 µM [inhibitor, partial curve]"}, {"smiles": "CCOc1ccc(/C=C/C(=O)c2cccs2)cc1", "Potency": "inconclusive: 25.1 µM [inhibitor, partial curve, poor fit]"}, {"smiles": "CC(C)C(=O)Nc1ccc(-c2nc3cccnc3o2)cc1", "Potency": "inconclusive: 25.1 µM [inhibitor, partial curve]"}, {"smiles": "O=C(Nc1cc(C(F)(F)F)ccc1N1CCOCC1)c1cccs1", "activity change, negative = inhibition": "inactive: 4.89%"}, {"smiles": "O=[N+]([O-])c1ccc(O)c(-c2nn[nH]n2)c1", "Potency": "active: 0.398 µM"}, {"smiles": "O=C(c1ccc(C(F)(F)F)cc1)N1CCC(=O)N(C(COCc2ccc(C(F)(F)F)cc2)Cc2ccccc2)CC1", "note": "(stereo not given)", "activity change, negative = inhibition": "inactive: -0.0068%"}, {"smiles": "Cc1ccccc1Cn1c2ccccc2c2cnn(CC(=O)NCc3ccco3)c(=O)c21", "Potency": "inconclusive: 35.5 µM [inhibitor, single point]"}, {"smiles": "COc1ccc(/C=C/C(=O)NC(=S)Nc2cc([N+](=O)[O-])ccc2O)cc1OC", "activity change, negative = inhibition": "inactive: -10.6%"}, {"smiles": "CCOC(=O)c1c(N)sc2c1CCCC2", "Potency": "inconclusive: 35.5 µM [inhibitor, single point]"}, {"smiles": "O=C(O)CN1CCCC1=Nc1ccccc1", "activity change, negative = inhibition": "inactive: -6.1%"}, {"smiles": "CCOc1ccccc1C(=O)NC1CC2CCCC(C1)N2Cc1nnnn1Cc1ccco1", "note": "(stereo not given)", "activity change, negative = inhibition": "inactive: 4.92%"}, {"smiles": "N#Cc1nc(-c2ccc(Cl)cc2)oc1N1CCCCC1", "Potency": "inconclusive: 31.6 µM [inhibitor, partial curve]"}, {"smiles": "CS(=O)(=O)N(CC(=O)N1CCN(c2ccccc2F)CC1)C1CCCCC1", "activity change, negative = inhibition": "inactive: -1.9%"}, {"smiles": "Nc1ccccc1C(=O)Nc1cccc(C(=O)O)c1", "Potency": "inconclusive: 25.1 µM [inhibitor, partial curve]"}, {"smiles": "CCN(CC)S(=O)(=O)c1cc(NC(=O)CN2CCN(c3ccccn3)CC2)ccc1C", "Potency": "inconclusive: 25.1 µM [inhibitor, single point]"}, {"smiles": "CC1CCN(c2c([N+](=O)[O-])c(=O)n(-c3ccccc3)c3ccccc23)CC1", "activity change, negative = inhibition": "inactive: 1.85%"}, {"smiles": "CCCCn1cnc2cc(NCc3ccncc3)ccc21", "Potency": "inconclusive: 39.8 µM [inhibitor, single point]"}, {"smiles": "COCC(C)NCc1ccc(C)cc1C", "note": "(stereo not given)", "Potency": "inconclusive: 25.1 µM [inhibitor, single point]"}, {"smiles": "COc1cc2c(cc1OC)C1=C(C#N)CCC(=NC(=O)c3ccc(Cl)cc3)N1CC2", "activity change, negative = inhibition": "inactive: -6.89%"}, {"smiles": "COc1cc(C2NC(=S)NC3=C2CCc2ccccc23)cc(OC)c1OC", "note": "(stereo not given)", "activity change, negative = inhibition": "inactive: -12.7%"}, {"smiles": "Cc1ccc(S(=O)(=O)/N=C(\\N)Nc2nc(C)c3ccc(C)cc3n2)cc1", "Potency": "inconclusive: 35.5 µM [inhibitor, single point]"}, {"smiles": "CC(/C=C/C1(O)C(C)CC(O)CC1(C)C)OC1OC(CO)C(O)C(O)C1O", "note": "(stereo not given)", "Potency": "inconclusive: 20 µM [inhibitor, single point]"}, {"smiles": "Cc1nc(/C=C/c2ccccc2)[nH]c(=O)c1-c1ccccc1", "Potency": "inconclusive: 17.8 µM [inhibitor, single point]"}, {"smiles": "CC1(C)CC(=O)C2=C(C1)Nc1ccccc1NC2c1ccccn1", "note": "(stereo not given)", "Potency": "inconclusive: 39.8 µM [inhibitor, single point]"}, {"smiles": "CCc1ccc(OCC(=O)NC(NC(=S)Nc2ccccc2C)C(Cl)(Cl)Cl)cc1", "note": "(stereo not given)", "activity change, negative = inhibition": "inactive: -5.94%"}, {"smiles": "O=C(O)c1ccc(-n2nnnc2SCc2ccccc2)cc1", "activity change, negative = inhibition": "inactive: -5.25%"}, {"smiles": "CCOC(=O)c1ccccc1NC(=O)COC", "Potency": "inconclusive: 39.8 µM [inhibitor, single point]"}, {"smiles": "COc1ccc(C2CC(c3ccc4ccccc4c3)=NN2C(=O)CN2C(=O)CCC2=O)cc1", "note": "(stereo not given)", "Potency": "inconclusive: 28.2 µM [inhibitor, partial curve]"}, {"smiles": "O=C(O)Cc1csc(Nc2cccc(Cl)c2)n1", "activity change, negative = inhibition": "inactive: -6.08%"}, {"smiles": "NC(=S)N/N=C/c1ccc(-c2cc(Cl)c(Cl)cc2Cl)o1", "Potency": "inconclusive: 14.1 µM [inhibitor, partial curve]"}, {"smiles": "CO/N=C(\\C(=O)N[C@@H]1C(=O)N2C(C(=O)O)=C(COC(N)=O)CS[C@H]12)c1ccco1", "activity change, negative = inhibition": "inactive: -12.5%"}, {"smiles": "COc1ccc(/C=C/C(=O)NC(=S)NNC(=O)c2cnccn2)cc1", "Potency": "active: 7.94 µM"}, {"smiles": "CCCCCC1CC(CC(=O)NC(=S)Nc2ccc([N+](=O)[O-])cc2)C(=O)O1", "note": "(stereo not given)", "activity change, negative = inhibition": "inactive: 2.57%"}, {"smiles": "COc1ccc(-c2ccc(N(C)C)cc2)cc1[C@H]1[C@H]2C=CC[C@@H](C)[C@@H]2C(=O)N1Cc1ccccc1", "Potency": "inconclusive: 25.1 µM [inhibitor, partial curve]"}, {"smiles": "COc1ccc(-n2cccc2/C=C2\\C(=N)N3N=C(c4ccco4)SC3=NC2=O)cc1", "activity change, negative = inhibition": "inactive: -24.9%"}, {"smiles": "O=[N+]([O-])/C(C(Cl)=C(Cl)Cl)=C1\\Nc2ccccc2O1", "Potency": "inconclusive: 31.6 µM [inhibitor, single point]"}, {"smiles": "Cc1nnc2sc(-c3ccc(-c4ccc(Cl)c(C(F)(F)F)c4)o3)nn12", "Potency": "inconclusive: 7.94 µM [inhibitor, full curve]"}, {"smiles": "COCCOC(=O)C1=C(C)NC(=O)NC1c1ccc(-c2cc(Cl)ccc2Cl)o1", "note": "(stereo not given)", "Potency": "inconclusive: 39.8 µM [inhibitor, single point]"}, {"smiles": "Fc1c(F)c(F)c(N=Cc2ccc3ncccc3c2)c(F)c1F", "activity change, negative = inhibition": "inactive: 2.86%"}, {"smiles": "O=Cc1cn(CCC(=O)O)nc1-c1cc2ccccc2o1", "Potency": "inconclusive: 35.5 µM [inhibitor, single point]"}, {"smiles": "Cc1cc(C)n2c(SCC(=O)N(C)C3CCCCC3)nnc2n1", "Potency": "inconclusive: 25.1 µM [inhibitor, single point]"}, {"smiles": "COc1ccc(-c2csc(N3CCN(c4cc(C)nc5ccccc45)CC3)n2)cc1OC", "Potency": "inconclusive: 28.2 µM [inhibitor, single point]"}, {"smiles": "N#C/C(=C/c1ccc(N2CCOCC2)o1)c1ccc(Cl)cc1", "Potency": "inconclusive: 39.8 µM [inhibitor, single point]"}]}]}
